Assay [1] deals with T1, cYFP-AtFis1A (Arabidopsis thaliana) (UniProt Q9M1J1).
T1 sequence: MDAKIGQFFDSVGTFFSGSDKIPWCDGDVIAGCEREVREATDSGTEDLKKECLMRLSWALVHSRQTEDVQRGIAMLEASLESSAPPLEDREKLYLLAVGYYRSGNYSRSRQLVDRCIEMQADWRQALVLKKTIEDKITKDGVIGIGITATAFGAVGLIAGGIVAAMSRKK
The assay can be described thus: split reporter; BiFC in mock-infected (noninfected) N. benthamiana leaves, in the absence of TBSV replication.

In assay [2] the target is T2, cYFP-AtFis1B (Arabidopsis thaliana) (UniProt Q94CK3).
T2 sequence: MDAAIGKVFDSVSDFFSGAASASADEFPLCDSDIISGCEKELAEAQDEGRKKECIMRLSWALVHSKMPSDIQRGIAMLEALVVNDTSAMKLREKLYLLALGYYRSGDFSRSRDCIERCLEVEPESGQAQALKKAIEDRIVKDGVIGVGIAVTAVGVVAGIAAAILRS
Described as above.

Assay [3] has as its target T3, TBSV p33-cYFP replication protein (tomato bushy stunt virus (TBSV)) (UniProt P15962).
T3 sequence: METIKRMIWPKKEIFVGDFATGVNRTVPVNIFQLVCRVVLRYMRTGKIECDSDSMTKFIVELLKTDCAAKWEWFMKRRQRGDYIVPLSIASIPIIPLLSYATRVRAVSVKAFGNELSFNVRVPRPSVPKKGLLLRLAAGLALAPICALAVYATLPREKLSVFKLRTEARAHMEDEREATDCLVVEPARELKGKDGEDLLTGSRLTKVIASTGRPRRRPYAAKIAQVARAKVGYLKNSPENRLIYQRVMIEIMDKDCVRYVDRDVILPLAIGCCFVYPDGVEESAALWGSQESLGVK
Kind of assay: split reporter; BiFC (nYFP/cYFP fusions, 35S promoter, co-agroinfiltration) in N. benthamiana leaves infected with TBSV or CIRV; confocal microscopy; includes TRV-MBP control plants.

Assay [4] concerns the target T2, cYFP-AtFis1B (Arabidopsis thaliana). Described as above.
In assay [5] the target is T4, yeast Fis1p, MYTH bait (S. cerevisiae) (UniProt P40515).
T4 sequence: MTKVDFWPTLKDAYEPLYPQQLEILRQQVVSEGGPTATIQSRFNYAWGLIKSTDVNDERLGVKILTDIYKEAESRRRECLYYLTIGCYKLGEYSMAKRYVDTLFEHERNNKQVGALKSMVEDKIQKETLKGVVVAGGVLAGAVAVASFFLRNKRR
Kind of assay: two-hybrid; split-ubiquitin-based membrane yeast two-hybrid assay (MYTH) in yeast; bait (TBSV p33 or yeast Fis1p) co-expressed with NubG prey proteins.

For assay [6], the target named is T3, TBSV p33-cYFP replication protein (tomato bushy stunt virus (TBSV)). The assay can be described thus: condition: only in Fis1-silenced (VIGS) plant cells; split reporter; BiFC in TBSV-infected N. benthamiana leaves with VIGS-based silencing of Fis1 (TRV-NbFis1).
For assay [7], the target named is T1, cYFP-AtFis1A (Arabidopsis thaliana). The assay can be described thus: split reporter; BiFC (nYFP/cYFP fusions, 35S promoter, co-agroinfiltration) in N. benthamiana leaves infected with TBSV or CIRV; confocal microscopy; includes TRV-MBP control plants.
The target of assay [8] is Flag-AtFis1A (Arabidopsis thaliana) (UniProt Q9M1J1). The assay can be described thus: co-IP; Flag-affinity purification of Flag-AtFis1A or Flag-AtFis1B from N. benthamiana infected with TBSV and expressing p33-HA; co-purified p33-HA detected with anti-HA antibody.
The target of assay [9] is T5, Flag-AtFis1B (Arabidopsis thaliana) (UniProt Q94CK3).
T5 sequence: T2 sequence
The assay is described as above.

Results are given in words; binding and its absence hold for the method and conditions named. For some of these results: Binding seen in cells or lysates may run through a third protein. Some entries that bind do so weakly or less than the wild type. For some of these results: Tags and fused reporters may be left off the sequences shown.

B1: nYFP-AtVAP27-1 (protein, UniProt Q8VZ95 1-256)
chain: MSNIDLIGMSNRDLIGMSNSELLTVEPLDLQFPFELKKQISCSLYLTNKTDNNVAFKVKTTNPKKYCVRPNTGVVLPRSTCEVLVTMQAQKEAPSDMQCKDKFLLQGVIASPGVTAKEVTPEMFSKEAGHRVEETKLRVTYVAPPRPPSPVHEGSEEGSSPRASVSDNGHGSEFSFERFIVDNKAGHQENTSEARALITKLTEEKQSAIQLNNRLQRELDQLRRESKKSQSGGIPFMYVLLVGLIGLILGYIMKRT
As for B1, the binding result in assay [1], in [2], in assay [3] and in assay [4] was “binds” in each case.

B2: yeast Osh6p oxysterol-binding protein, MYTH prey (protein, UniProt Q02201 1-448)
chain: MGSKKLTVGSDSHRLSKSSFSSNKSSHSATKDQPIDTDDIDEDDESGHNIILNIISQLRPGCDLTRITLPTFILEKKSMLERVTNQLQFPEFLLQAHSEKDPLKRFLYVMKWYLAGWHIAPKAVKKPLNPVLGEYFTAYWDLPNKQQAYYISEQTSHHPPECAYFYMIPESSIRVDGVVIPKSRFLGNSSAAMMDGSTVLQFLDIKDGNGKPEKYVLTQPNVYVRGILFGKMRIELGDHMIIKSPNFQADIEFKTKGYVFGTYDAIEGTVKDYDGNAYYEISGKWNDVMYLKDLKQPRSSPKVFLDTHKESPLRPKVRPLSEQGEYESRKLWKKVTDALAVRNHPVATEEKFQIEDHQRQLAKKRIEDGVEFHPKLFRRSKPGEDLDYCIYKNIPVDEDPEKQIRSILQIAPILPGQQFTDKFFIPAFEKIKSQKKMIENEKQNPAKQ
For the molecule B2, in assay [5], the binding result is “binds”.

B3: nYFP-AtORP3A (protein, UniProt Q9LZM1 1-453)
chain: MASNDPKNGGGFFASLASSITNFGSAMSKSVNGLMGYEGLEVINPEGSTDDAEEEAGRGRWKQEERDGYWKMMQKYIGSDVTSMVTLPVIIFEPMTMLQKMAELMEYSYLLDMADKTEDPYMRMVYASSWAISVYYAYQRTWKPFNPILGETYEMTNHNGINFIAEQVCHHPPMSAGHAENEHFAYDCTSKLKTKFLGNSIDVYPVGRTRVTLKRDGVVLDLVPPLTKVHNLIFGRTWVDSPGEMVMTNLTTGDKVVLYFQPCGWFGSGRYEVDGYVYNSAEEPKMLMTGKWNESLSYQPCDAEGEPLPGTELKEVWKVAEAPKNDKYQYTHFAHKINSFDTAPKKLLSSDSRLRPDRYALEMGDMSKSGFEKSSLEDRQRAEKKSREEKGQKFAPKWFDETEEVTPTPWGDLEVYQFNGKYSVHRATAENSEDTTDVKLTQFNPWQFQDLSA
With B3, the binding entry in assay [2] is given as “binds”; in assay [6] it was “no binding”; in [3], “binds”; in assay [7] it was “binds”; in assay [4], “binds”.

B4: HA-tagged TBSV p33 replication protein (protein, UniProt P15962 1-296)
chain: T3 sequence
Take B4: the binding entry in assay [8] and in assay [9] was “binds” in each case.

B5: nYFP-AtPVA12 VAP protein (protein, UniProt Q9SHC8 1-239)
chain: MSNELLTIDPVDLQFPFELKKQISCSLYLGNKTDNYVAFKVKTTNPKKYCVRPNTGVVHPRSSSEVLVTMQAQKEAPADLQCKDKFLLQCVVASPGATPKDVTHEMFSKEAGHRVEETKLRVVYVAPPRPPSPVREGSEEGSSPRASVSDNGNASDFTAAPRFSADRVDAQDNSSEARALVTKLTEEKNSAVQLNNRLQQELDQLRRESKRSKSGGIPFMYVLLVGLIGLILGYIMKRT
On to B5, for which the binding entry in assay [1], in assay [2], in assay [3] and in assay [4] was “binds” throughout.

The values are drawn from article PMC7997005, “Dynamic interplay between the co-opted Fis1 mitochondrial fission protein and membrane contact site proteins in supporting tombusvirus replication” (PLoS Pathogens, 2021).
